In PubChem BioAssay AID463173 (ICCB-Longwood Screening Facility, Harvard Medical School, 2010):
The campaign covered roughly 52,000 compounds. About 4,300 (8.3%) were called active. Rule as the data show it: active = survival mostly below about 52% (no sharp cut-off); inactive = mostly above about 56%. The list shows a part of the results.

system: DeltatarO mutant; experiment: S. aureus survival, RN4220 and DeltatarO strains – OD600, teichoic acid synthesis inhibitors, primary screen (AID 463173); settings: S. aureus RN4220 wild type/DeltatarO growth, OD600, 18 h, stronger effect = lower value, screened at 18.75 µg/mL (by protocol)

Structure (SMILES) | survival
CC(C)C(NS(=O)(=O)c1ccc2c(c1)oc(=O)n2C)C(=O)NCc1ccccc1 (configuration not stated) | inactive: 92%
Cc1oc(-c2ccc(C(=O)NCc3ccccc3F)cc2)nc1COc1ccccc1 | inactive: 77%
Cc1ccc(NC(=O)C2CCN(S(=O)(=O)c3ccc4c(c3)CCCN4C(=O)C3CCC3)CC2)cc1 | inactive: 104%
O=C(CCS(=O)(=O)c1nc(-c2cccs2)cc(C(F)(F)F)n1)Nc1ccc(F)c(Cl)c1 | inactive: 67%
CSc1nc(N)c(C#N)c(C(C)C)c1C#N | inactive: 75%
O=C(NCCCN1CCCCC1)c1[nH]c2ccccc2c1Sc1ccc(Cl)cc1 | active: 7%
NC(=O)C1CCN(C(=O)CSc2nc(O)cc(=O)[nH]2)CC1 | inactive: 77%
Cc1c(Cl)cccc1-n1ncc(C(=O)N2CCC(C)CC2)c1C1CCN(C(=O)OC(C)(C)C)CC1 | inactive: 60%
Cc1cc(C)nc(NS(=O)(=O)c2ccc(NC(=O)c3nc(SC(C)C)ncc3Cl)cc2)n1 | inactive: 49%
CCOc1ccc(CCNC(=O)c2ccc3c(c2)nc2n3CCOC2)cc1OCC | inactive: 79%
O=C(CSc1nc2c([nH]c3ccccc32)c(=O)n1-c1ccc(F)cc1)NCc1ccc(F)cc1 | inactive: 80%
O=C(Nc1cccc(C(=O)OCc2cc(=O)n3c4c(sc3n2)CCCC4)c1)c1cccc(Cl)c1 | inactive: 69%
COc1cccc(NC(=O)Cn2nnc(C(=O)NCCc3ccccc3)c2N)c1 | inactive: 144%
Cn1cnc2c(=O)oc3ccc(S(=O)(=O)N4CCN(c5ccccc5F)CC4)cc3c21 | inactive: 92%
Cc1nc(-c2ccc(S(=O)(=O)N(Cc3ccccc3)C(C)C)cc2)co1 | inactive: 70%
N/C(=N\OCC(=O)Nc1ccccc1)c1nonc1N | inactive: 92%
COc1ccc(CCn2c(=O)c3cccnc3n(CC(=O)Nc3ccc(C)cc3C)c2=O)cc1OC | inactive: 78%
CCN1C(=O)c2ccccc2S(=O)(=O)c2ccc(C(=O)NCc3ccccc3Cl)cc21 | inactive: 108%
COC(=O)CSc1ncc2c(n1)-c1ccccc1N(Cc1cccc(F)c1)S2(=O)=O | inactive: 96%

Structure (SMILES) | survival
CCc1cccc(C)c1NS(=O)(=O)c1c(C)nc2sccn2c1=O | inactive: 64%
CCOC(=O)C1CCN(C(=O)CSc2n[nH]c(-c3ccc(F)cc3)n2)CC1 | inactive: 77%
COc1cccc(CNC(=O)c2c(C)oc3nc(C)nc(N4CCOCC4)c23)c1 | inactive: 69%
Cc1cc(C(=O)C(=O)Nc2nnc(C(C)C)s2)c(C)n1-c1ccccc1 | inactive: 89%
CC(=O)c1cccc(NC(=O)C(C)n2c(=O)cc(-c3ccccc3)c3c(C)nn(C)c32)c1 (configuration not stated) | inactive: 102%
COc1cccc(CNC(=O)c2ccc(NC(=O)N3CCCCc4ccccc43)cc2)c1OC | inactive: 80%
CCOc1cccc(OCCCn2c(-c3ccc(Br)cc3)nc3ccccc3c2=O)c1 | inactive: 64%
CCOc1ccc(-c2cc(-c3nc(-c4ccc(C)cc4)no3)[nH]n2)cc1 | inactive: 94%
CCOc1ccccc1-c1nc(SCC(=O)c2ccc(OC)c(Br)c2)n[nH]1 | inactive: 53%
CCc1ccc(NC(=O)C2CCCN(S(=O)(=O)c3c(C)noc3/C=C/N(C)C)C2)cc1 (configuration not stated) | active: 42%
Cc1ccc(Cl)cc1N1CCN(C(=O)CCCCCn2c(=O)[nH]c3ccccc3c2=O)CC1 | inactive: 78%
Cc1cc(C(=O)c2cccs2)c(N)s1 | active: 33%
CC(C)OC(=O)c1cccnc1SCC(=O)Nc1ccc(C(F)(F)F)cc1Cl | inactive: 97%
CCOC(=O)c1c(-c2ccccc2)csc1NC(=O)c1cc(-c2ccc(C)c(F)c2)on1 | active: 52%
CCN(CC)S(=O)(=O)c1ccc2c(c1)N(CC(=O)N1CCN(c3ccc(Cl)cc3)CC1)C(=O)CO2 | inactive: 74%
O=C(NC1CCCCCC1)C1c2ccccc2C(=O)N1Cc1ccccc1Cl (configuration not stated) | inactive: 96%
CC(C)(C)C(=O)NC1CCN(S(C)(=O)=O)CC1 | inactive: 95%
O=C(Cn1ccc2cc(S(=O)(=O)N3CCCCCC3)ccc21)NCCc1ccc(Cl)cc1 | inactive: 81%
Cc1cc(-c2ccc(C)c(S(=O)(=O)Nc3cccc(C#N)c3)c2)on1 | inactive: 89%

Structure (SMILES) | survival
COc1ccc(/C=C/C(=O)Nc2ccc(Cl)c(Cl)c2)cc1 | inactive: 66%
O=C(COc1ccc(F)cc1)NCCc1nc2ccccc2[nH]1 | active: 57%
CCOc1ccc(CCNC(=O)c2c(C)oc3ncn(C)c(=O)c23)cc1 | inactive: 84%
O=C(NCCCO)Nc1ccc(Cl)cc1 | inactive: 66%
Cc1cnc(=O)[nH]c1SCC(=O)Nc1nc2ccccc2s1 | inactive: 83%
Cc1ccc2oc(-c3cccc(NC(=O)c4sc5c([N+](=O)[O-])cccc5c4Cl)c3)nc2c1 | inactive: 67%
O=c1c2sccc2n(Cc2cc(=O)n3ccccc3n2)c(=O)n1-c1cccc(C(F)(F)F)c1 | inactive: 52%
Cc1ccc(-c2nnc(SCC(=O)NCc3ccccc3)nc2-c2ccc(C)cc2)cc1 | inactive: 99%
COc1ccccc1N1CCN(C(=O)c2cnc(N3CCCCC3)c3ccccc23)CC1 | inactive: 90%
Cc1cc2c(cc3c(SCC(=O)Nc4cccc(Cl)c4C)nnc(C)n32)o1 | inactive: 102%
CCc1ccc(-n2c(=O)c3c(C)c(C(=O)N(C)C)sc3n(Cc3ccccc3F)c2=O)cc1 | inactive: 71%
CCOc1ccccc1CNC(=O)CCn1ccc2cc(S(=O)(=O)N3CCCCC3)ccc21 | inactive: 128%
O=C(CN(C(=O)CSc1nc2ccccc2o1)c1cccc(F)c1)NC1CCCCC1 | inactive: 105%
N#CCCSc1nnc(-c2ccncc2)n1Cc1ccccc1 | inactive: 99%
Cn1c(=O)c2sccc2n2c(CCCC(=O)Nc3ccc(Oc4ccc(Cl)cc4)cc3)nnc12 | active: 24%
Cc1ccc(-c2cc3c(N4CCN(c5cc(C)ccc5C)CC4)nccn3n2)cc1 | inactive: 68%
CC(=O)N1c2c(cc(Br)cc2S(=O)(=O)N2CCN(c3ccccc3)CC2)CC1C (configuration not stated) | inactive: 79%
CC(C)CCOc1ccccc1Cn1c(=O)sc2ccccc21 | active: 3%
Cc1ccccc1NS(=O)(=O)c1ccc2[nH]c3c(c2c1)CCCCC3 | inactive: 89%
